# Assay results as given in the supplement of paper PMC12217912.
# Some of the results follow. Sequences were assembled here from the parent chain. Inactive controls read about 0.05.
# B1: TEV protease; numbered along this chain (parent)
# chain: MGESLFKGPRDYNPISSSICHLTNESDGHTTSLYGIGFGPFIITNKHLFRRNNGTLVVQSLHGVFKVKDTTTLQQHLVDGRDMIIIRMPKDFPPFPQKLKFREPQREERICLVTTNFQTKSMSSMVSDTSCTFPSGDGIFWKHWIQTKDGQCGSPLVSTRDGFIVGIHSASNFTNTNNYFTSVPKNFMELLTNQEAQQWVSGWRLNADSVLWGGHKVFMVKPEEPFQPVKEATQL
# Variants of: B1
# Experiment: raw area under fraction-flipped curve 0-4 h after induction (AUC4h, not background-subtracted), DNA-recorder readout of cleavage of the substrate (dimensionless); higher = more cleavage of the substrate by the protease variant
# Settings: temperature: 34 °C; time window: 0-4 h after rhamnose induction
# Method: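 In vivo DNA recorder in E. coli TOP10(DE3) ΔrhaA at 34 °C. Each TEVp single-site mutant (parent TEVp 0) is paired with a single-site variant of the 7-mer TEVs (canonical ENLYFQ|S). The substrate sits between flexible linkers in a Bxb1-sfGFP-TEVs-SsrA fusion, so cleavage stabilises Bxb1 and speeds flipping of a recombination array, read by NGS. The value is the raw area under the fraction-flipped curve over 0-4 h after rhamnose induction (AUC4h), with ≥20 reads per time point. It is not background-subtracted; inactive controls average about 0.047.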
# 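Note: Bxb1 expression induced with 0.2% (w/v) L-rhamnose at OD600 near 0.5, cultures sampled hourly, flipped fraction per protease–substrate barcode pair counted by paired-end Illumina sequencing.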
Variant,area with substrate ENAYFQS,area with substrate ENCYFQS,area with substrate ENDYFQS,area with substrate ENEYFQS,area with substrate ENGYFQS,area with substrate ENKYFQS,area with substrate ENNYFQS,area with substrate ENPYFQS,area with substrate ENQYFQS,area with substrate ENRYFQS,area with substrate ENSYFQS,area with substrate ENVYFQS,area with substrate ENYYFQS,area with substrate ENHYFQS,area with substrate ENTYFQS,area with substrate ENMYFQS,area with substrate ENWYFQS,area with substrate ENFYFQS,area with substrate ENIYFQS
I42V,0.063,0.0593,0.061,0.0599,0.0746,0.0648,0.0525,0.059,0.042,0.0717,0.0505,0.086,0.0626,–,–,–,–,–,–
I43D,0.045,0.0384,0.0348,0.0428,0.0429,0.0427,–,0.0458,0.0437,0.0342,0.0521,0.0371,–,0.0476,0.038,–,–,–,–
I43H,0.0368,–,0.0435,0.0431,0.0493,–,0.0221,0.0404,0.0455,0.0315,0.044,0.0388,0.0484,0.0474,0.0409,0.0399,0.0199,–,–
T44I,0.0579,–,0.059,–,0.09,0.0579,0.0618,0.0618,0.0477,–,0.049,0.0519,–,–,0.0491,0.0559,–,0.048,–
T44N,0.0396,–,0.0548,0.0429,0.0386,0.0453,0.047,–,0.0541,–,0.0449,0.0455,–,0.0403,0.0591,–,–,0.0536,0.0521
N45E,0.0598,0.0619,0.0597,0.0605,0.0692,0.0431,0.0604,0.0618,0.0584,0.0628,0.0539,0.056,0.069,0.0537,0.0595,–,0.0443,0.0608,0.059
N45P,0.0658,0.0787,0.0651,0.0512,0.0616,–,0.0593,0.0382,–,0.0716,0.0648,0.0594,–,0.0623,0.0604,0.077,–,0.0678,–
F49D,0.0585,0.0639,0.0587,0.0525,0.0668,0.0662,0.0683,0.054,0.0645,0.0569,0.0701,0.0577,0.0568,0.0823,0.0806,0.0524,0.0233,0.0174,0.0503
F49Q,0.0539,0.0557,0.0572,0.0858,0.0387,0.0475,–,0.0617,0.0502,–,0.059,0.0537,0.033,0.0582,0.0632,0.0679,0.0416,–,0.057
F49Y,0.0787,0.0977,0.0615,0.0297,0.0612,–,0.0531,0.0496,0.06,–,0.0642,0.0498,–,0.0405,0.0566,0.0485,–,–,0.0697
R50C,0.0572,0.0657,0.0637,0.0672,0.0452,0.0688,–,–,0.0287,0.0525,0.0649,0.0781,0.0551,–,–,–,–,0.0665,–
N52Q,0.0562,0.0534,0.0651,0.139,0.0607,0.0644,–,–,0.0609,0.0615,0.0647,–,0.0555,–,–,–,–,–,0.123
